About 4,000 (1.1%) of roughly 380,000 compounds were called active. The shares of active, inactive and inconclusive entries below differ from those in the screen. Calls follow the shape of the dose curve; as a rule, active = well fitted activation curve with a large enough effect; inconclusive = small, poorly fitted or top-dose-only effect; inactive = no such curve, though single readings can be large or run the other way. A potency beside an inconclusive call is a rough fit, not a confirmed value.
experiment: qHTS Assay to Identify Small Molecule Activators of BRCA1 Expression; conditions: MCF7-BRCA1-FFLuc reporter, luminescence, 48 h; activation: at 46.1 µM (top of the series), scaled: vehicle 0%, 10 µM genistein 100% unless noted; also: nearly all actives have a fitted effect of over 80% in size
Outline: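 Cells: MCF7-BRCA1-FFLuc, 2000/well. Exposure: 48 h, 37 °C, 5% CO2. Read: luminescence, 15 min post-substrate. Controls: genistein 10 microM (maximal activation), DMSO (neutral).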
Tags tell the direction and shape of the fitted curve.

Row | Compound | Potency | activation
1 | COc1ccc(-c2csc(Nc3cccc(C)n3)n2)cc1OC | active: 2.82 µM | –
2 | CSc1ncc(C(=O)Nc2ccc(C(C)=O)cc2)c(C)n1 | inconclusive: 12.6 µM [activator, partial curve, poor fit] | –
3 | COc1ccc(C(=O)CN2C(=O)NC3(CCCCCC3)C2=O)cc1 | inconclusive: 15.8 µM [activator, partial curve, poor fit] | –
4 | CC1=NNC(=O)C1C(c1ccc(F)cc1)C(C#N)C#N (centres undefined) | inactive | –
5 | CNC(=S)N/N=C/c1ccc(-c2cccc(C(=O)O)c2)o1 | inconclusive: 10 µM [activator, partial curve, poor fit] | –
6 | CCCCOC(=O)Nc1ccc(C(N)=O)cc1 | inconclusive: 12.6 µM [activator, partial curve, poor fit] | –
7 | COc1ccc(-c2cc(C)nc(SCC(=O)c3cccc([N+](=O)[O-])c3)n2)cc1 | inactive | –
8 | COC(=O)C(C)N1C(=O)S/C(=C\c2ccc(-c3ccc(C(=O)O)cc3C)o2)C1=O (centres undefined) | inconclusive: 12.6 µM [activator, partial curve, poor fit] | –
9 | Cc1ccnc(NC(=O)Nc2ccc3c(c2)OCO3)c1 | inconclusive: 0.631 µM [activator, full curve, poor fit] | –
10 | Cc1ccc(NC(=O)CCc2nnc3ccc(NCc4ccco4)nn23)nc1 | inactive | –
11 | COc1cccc(N=NC2C(=O)N(C(N)=S)N=C2C)c1 (centres undefined) | inconclusive: 11.2 µM [activator, partial curve, poor fit] | –
12 | COc1ccc(-c2cn3cccc(C)c3n2)cc1F | inconclusive: 1.58 µM [activator, partial curve, poor fit] | –
13 | Cc1cccnc1CC(C)NC(=O)c1cc(COc2cncc(Cl)c2)on1 (centres undefined) | inconclusive: 10 µM [activator, single point] | –
14 | Cn1c(SCc2ccccc2Cl)nc2ccccc21 | inconclusive: 3.98 µM [activator, partial curve, poor fit] | –
15 | CCC(C)(C)C1CCC2(CC1)NC(=O)N(CC(=O)NC(C)CCc1ccccc1)C2=O (centres undefined) | inactive | –
16 | CCN(CC)CCn1c(NC(=O)c2ccccc2O)nc2ccccc21 | inactive | –
17 | O=C(CSc1nnc(-c2c[nH]c3ccccc23)o1)c1ccccc1 | active: 12.6 µM | –
18 | Cc1nonc1OCCN1CCN(c2ccccc2[N+](=O)[O-])CC1 | inactive | –
19 | CSc1ccc(-c2nc(CN(C)C3CCOC3)c(C)o2)cc1 (centres undefined) | inconclusive: 11.2 µM [activator, partial curve, poor fit] | –
20 | Cc1cc(C(=O)NC2CCCCCCC2)ccc1[N+](=O)[O-] | inconclusive: 1.58 µM [activator, full curve, poor fit] | –
21 | Cc1ccc(CSc2ncnc3c2cnn3-c2ccc(C)cc2)cc1 | active: 4.47 µM | –
22 | CCN(CC)c1ccc(NC(=O)Nc2ccccc2)cc1 | inconclusive: 1.78 µM [activator, full curve, poor fit] | –
23 | Cc1cccc(-c2noc(-c3cccnc3NCc3ccc(Cl)cc3)n2)c1 | inactive | –
24 | Cc1csc(=O)n1CC(=O)Nc1ccc(C(C)C)cc1 | inconclusive: 1.78 µM [activator, full curve, poor fit] | –
25 | CC1(C)CC(=O)C2=C(C1)N(c1ccc(F)cc1)C(=O)NC2(C(F)(F)F)C(F)(F)F | inactive | –

Row | Compound | Potency | activation
26 | O=C(C1CC(c2ccccc2O)=NO1)N1CCc2ccccc2C1 (centres undefined) | inconclusive: 11.2 µM [activator, partial curve, poor fit] | –
27 | COc1ccc(OC(C)C(=O)Nc2ccc([N+](=O)[O-])cc2)cc1 (centres undefined) | inactive | –
28 | COc1ccc(Cn2c(O)c(C=Nc3ccccc3C(=O)O)c3ccccc3c2=O)cc1 | inactive | –
29 | COc1cc(/C=N/N(C)c2ccccc2)ccc1O | inconclusive: 2.82 µM [activator, full curve, poor fit] | –
30 | O=c1c2ccccc2oc2cc(-c3ccc4cc[nH]c4c3)ccc12 | inconclusive: 3.16 µM [activator, partial curve, poor fit] | –
31 | CCOC(=O)Nc1ccc2c(COC(=O)c3ccccc3O)cc(=O)oc2c1 | inconclusive: 3.55 µM [activator, full curve, poor fit] | –
32 | N=c1c(S(=O)(=O)c2ccc(Cl)cc2)cc2c(=O)n3ccccc3nc2n1Cc1cccnc1 | inactive | –
33 | CCOc1ccc2nc(SCc3ccccc3C#N)sc2c1 | active: 7.94 µM | –
34 | COc1cc(NC(=O)c2cccc3c2C(=O)N(C2CCCCC2)C3)cc(OC)c1 | inactive | –
35 | N#Cc1c(N)nc(N)nc1Nc1ccc(Br)cc1 | inconclusive: 0.562 µM [activator, full curve, poor fit] | –
36 | CC(C)(C)c1ccc(-n2ncc3c2CCCC3NC(=O)CN2CCCC2=O)cc1 (centres undefined) | inactive | –
37 | COC(=O)[C@H](C)NC(=O)Nc1cccc(C(F)(F)F)c1 | inactive | –
38 | O=C(Nc1ccc(Nc2ccccc2)cc1)c1cccc(F)c1 | inconclusive: 3.55 µM [activator, partial curve, poor fit] | –
39 | O=C(Nc1ccc(Br)cc1Br)Nc1cccc2[nH]c([C@@H]3O[C@H](CO)[C@@H](O)[C@H](O)[C@H]3O)nc12 | inactive | –
40 | c1ccc2cc(C3OCC4(CCCC4)CO3)ccc2c1 | inconclusive: 8.91 µM [activator, partial curve, poor fit] | –
41 | Oc1c(N=Nc2nn[nH]n2)ccc2ccccc12 | inactive | –
42 | CC12C=CC3(CN(Cc4ccccc4)C(=O)C3C1C(=O)NCc1ccco1)O2 (centres undefined) | inactive | –
43 | Cc1nnc(SCc2ccc3c(c2)OCO3)s1 | active: 8.91 µM | –
44 | Cc1ccc(-c2noc(/C=C/c3ccccc3)n2)cc1 | inconclusive: 11.2 µM [activator, partial curve, poor fit] | –
45 | COc1cccc(NC(=O)NCc2ccccc2F)c1 | inconclusive: 11.2 µM [activator, partial curve, poor fit] | –
46 | Oc1ccccc1C1=Nc2nc3ccccc3n2C(c2ccccc2)C1 (centres undefined) | inconclusive: 35.5 µM [activator, single point] | –
47 | Cc1ccc(/C=C/C(=O)CCC(=O)O)cc1 | inconclusive: 14.1 µM [activator, partial curve, poor fit] | –
48 | Cn1ccc(NC(=O)c2ccc(Cl)cc2)n1 | inconclusive: 15.8 µM [activator, partial curve, poor fit] | –
49 | COc1ccccc1NS(=O)(=O)c1cccc(NC(=O)c2cc3ccccc3oc2=O)c1 | inconclusive: 17.8 µM [activator, partial curve, poor fit] | –
50 | COc1ccc(C(=O)Cc2cnn(-c3ccccc3)c2)c(O)c1 | inconclusive: 7.94 µM [activator, partial curve, poor fit] | –

Row | Compound | Potency | activation
51 | CCN1C(=O)/C(=C2\SC(N3CCCCC3)=NC2=O)c2ccccc21 | active: 10 µM | –
52 | c1coc(CNc2nc(-c3ccncc3)cs2)c1 | inconclusive: 11.2 µM [activator, single point] | –
53 | CCOc1ccc(OCCN2C(=O)c3ccccc3C2=O)cc1 | inconclusive: 11.2 µM [activator, partial curve, poor fit] | –
54 | Cc1ccc(C(=O)NCCCc2ccccc2)c(Cl)c1 | inconclusive: 1.26 µM [activator, full curve, poor fit] | –
55 | CCC(CC)c1nnc(NC(=O)c2ccc3c(c2)OCO3)s1 | inconclusive: 11.2 µM [activator, partial curve, poor fit] | –
56 | O=C(Nc1nc2ccccc2s1)c1ccc(F)cc1 | inconclusive: 0.501 µM [activator, full curve, poor fit] | –
57 | O=C(CSc1nnc(-c2ccc(F)cc2)o1)N1CCCCC1 | active: 8.91 µM | –
58 | O=C(Cc1ccccc1)Nc1ccc(SC(F)F)cc1 | inconclusive: 2 µM [activator, full curve, poor fit] | –
59 | COc1ccc(NC(=O)Nc2ccccc2F)cc1Cl | inconclusive: 1.78 µM [activator, full curve, poor fit] | –
60 | CCNC(C(=O)c1c[nH]c2c(CC)cccc12)c1ccccc1 (centres undefined) | inactive | –
61 | Oc1ccc(/C=N/Nc2ccc(C(F)(F)F)cn2)cc1 | active: 6.31 µM | –
62 | Brc1ccc(CSc2nnc(-c3ccco3)o2)cc1 | inconclusive: 8.91 µM [activator, partial curve, poor fit] | –
63 | CCn1c2ccccc2c2cc(NC(=O)N3CCCCC3)ccc21 | active: 8.91 µM | –
64 | O=C1CCOc2cc(OCc3ccccc3)ccc21 | inconclusive: 1.58 µM [activator, full curve, poor fit] | –
65 | CCCCOC(=O)c1ccc(NC(=O)c2ccoc2C)cc1 | inconclusive: 10 µM [activator, partial curve, poor fit] | –
66 | N/C(=N\OC(=O)COc1ccc(Cl)cc1Cl)c1ccccn1 | – | inconclusive: 99.2% [activator]
67 | O=C(Nc1ccc2c(c1)OCO2)c1ccccc1 | inconclusive: 1.78 µM [activator, full curve, poor fit] | –
68 | O=C(O)CNCC1COc2ccccc2O1 (centres undefined) | inactive | –
69 | CC(=O)c1cccc(NC(=O)N2CCc3ccccc3C2)c1 | active: 8.91 µM | –
70 | CC(=O)Nc1ccc2c(c1)C(=O)c1ccccc1C2=O | inconclusive: 1.78 µM [activator, full curve, poor fit] | –
71 | COc1ccccc1CN(C)CC(=O)Nc1ccccc1-c1ccccc1 | inactive | –
72 | COc1ccc(C(=O)Nc2cc(C)nn2-c2nc3ccccc3[nH]2)c(OC)c1 | inactive | –
73 | Cc1ccc(C(=O)C=CC=Cc2ccccc2)cc1 | inconclusive: 12.6 µM [activator, partial curve, poor fit] | –
74 | CC1CCc2nc3sc4c(c3c(N)c2C1)CCCC4 (centres undefined) | inconclusive: 6.31 µM [activator, partial curve, poor fit] | –

— PubChem BioAssay AID624202 (National Center for Advancing Translational Sciences (NCATS), 2012)
